Experimental data from PubChem BioAssay AID624417 (National Center for Advancing Translational Sciences (NCATS), 2012).
Among all 410,000 compounds or so, about 6,400 (1.6%) were called active. Inconclusive means that the source gave no clear call. Such entries were picked first, then a sample of the others. Calls come from the whole dose curve; as a rule, active = well fitted inhibition curve with a large enough effect; inconclusive = small, poorly fitted or top-dose-only effect; inactive = no such curve, though single readings can be large or run the other way. No potency is given beside an inconclusive call; the fits are too rough.

biological target: Glucagon-like peptide 1 receptor (Homo sapiens) (UniProt P43220); experiment: qHTS of GLP-1 Receptor Inverse Agonists (Inhibition Mode); conditions: HEK293 GLP-1R CRE-luciferase, luminescence, 24 h, GLP-1R form is constitutively active; activity change, negative = inhibition: at 38.3 µM (top of the series) unless noted; note: nearly all actives have a fitted effect of over 55% in size
Chain of UniProt P43220 (P43220 whole entry, looked up): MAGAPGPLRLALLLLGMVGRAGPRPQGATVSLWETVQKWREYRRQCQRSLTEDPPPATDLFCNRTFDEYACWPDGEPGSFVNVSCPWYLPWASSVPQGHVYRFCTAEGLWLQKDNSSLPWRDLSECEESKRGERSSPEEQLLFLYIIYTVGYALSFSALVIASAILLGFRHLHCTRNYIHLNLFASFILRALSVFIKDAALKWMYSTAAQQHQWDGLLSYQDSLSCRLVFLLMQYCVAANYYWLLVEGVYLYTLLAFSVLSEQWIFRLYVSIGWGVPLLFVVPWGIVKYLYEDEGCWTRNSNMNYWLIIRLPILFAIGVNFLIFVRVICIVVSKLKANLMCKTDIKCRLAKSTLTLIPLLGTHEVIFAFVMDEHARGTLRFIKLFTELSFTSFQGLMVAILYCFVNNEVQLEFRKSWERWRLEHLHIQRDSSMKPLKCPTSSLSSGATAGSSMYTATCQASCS
Summary of the method: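 Luminescence readout: a drop in cAMP-driven luciferase signal flags inverse agonism at a constitutively active GLP-1R stably expressed in HEK293. Compound exposure lasted 24 hr at 37 deg C, 5% CO2.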
% is set by controls: 0 for no effect and ±100 for the full control effect; potency is the fitted concentration of half-maximal effect; tags give direction and shape of the fitted curve.

Row | SMILES | Potency | activity change, negative = inhibition
1 | COC(=O)c1cc2sc(C)cc2n1Cc1cccc(OC)c1 | inconclusive [inhibitor, partial curve] | –
2 | COc1ccc(Cl)cc1NC(=O)CN(C)C(=O)c1ccc(OCc2ccccc2)c(OC)c1 | inconclusive [inhibitor, partial curve, poor fit] | –
3 | Cc1ccccc1C(C(=O)NCc1ccccc1)N(Cc1ccco1)C(=O)c1ccccn1 (stereo not given) | inconclusive [inhibitor, single point] | –
4 | O=C(COC(=O)Cn1nnc(-c2ccccc2)n1)Nc1ccccc1Br | – | inactive: -9.69%
5 | COc1c(Cl)cc(Cl)cc1CNCc1ccccc1 | inconclusive [inhibitor, single point] | –
6 | COc1ccc(C2Nc3ccccc3-c3cc(C)nn32)cc1OC (stereo not given) | – | inactive: 6.25%
7 | O=c1ccn([C@@H]2O[C@H](CNCc3c(OCc4ccccc4F)ccc4ccccc34)[C@@H](O)[C@H]2O)c(=O)[nH]1 | inconclusive [inhibitor, partial curve, poor fit] | –
8 | O=C(Nc1cccc(S(=O)(=O)Nc2ccc(SC(F)F)cc2)c1)C1CCC1 | inconclusive [inhibitor, single point] | –
9 | Cc1cc(CN2CCN(c3ccccc3F)CC2)cs1 | – | inactive: -7.35%
10 | O=C(CCC(=O)N1CC2CCCN2c2ccccc21)NCc1ccc(Cl)cc1 (stereo not given) | inconclusive [inhibitor, single point] | –
11 | Cc1ccccc1CN1CCN(C(=O)c2ccc(S(=O)(=O)NCc3ccco3)cc2)CC1 | inconclusive [inhibitor, single point] | –
12 | COc1ccc(CNC(=O)c2cc(C3CC3)nc3c2cnn3C(C)C)cc1 | inconclusive [inhibitor, single point] | –
13 | COc1ccc(-n2ncc3c(N4CCC(C(N)=O)CC4)ncnc32)cc1 | inconclusive [inhibitor, partial curve, poor fit] | –
14 | CN1CCN(/N=C/c2ccc(-c3ccc([N+](=O)[O-])cc3)o2)CC1 | inconclusive [inhibitor, partial curve, poor fit] | –
15 | CCOC(=O)C1Nc2c(F)cc(C)cc2C2c3ccccc3CC12 (stereo not given) | active: 10 µM | –
16 | COc1cc2[nH]c(=S)nc(NCCC(C)C)c2cc1OC | inconclusive [inhibitor, single point] | –
17 | O=C(Nc1ccccc1N1CCCCC1)c1ccc(Cl)cc1 | – | inconclusive: -71% [inhibitor]
18 | Cc1cc(OCCCCCNCCO)ccc1Cl | inconclusive [inhibitor, partial curve, poor fit] | –
19 | COc1ccccc1/C=C/C=N/NC(=O)CCn1cnc2ccccc21 | inconclusive [inhibitor, full curve, poor fit] | –
20 | CC1(c2nnc(-c3ccccc3)o2)CC(c2ccc(Cl)cc2)=NO1 (stereo not given) | inconclusive [inhibitor, single point] | –

Row | SMILES | Potency | activity change, negative = inhibition
21 | Cc1ccc(Cn2c(C(=O)NCc3ccccc3Cl)cc3sccc32)cc1 | – | inactive: 2.85%
22 | CCC1=C(c2ccc(C)cc2)S(=O)(=O)N=C1N1CCC(C(=O)Nc2ccccc2F)CC1 | – | inactive: 9.71%
23 | CCOC(=O)C(C)Sc1ncc(OC)c(Sc2ccc(Cl)cc2)n1 (stereo not given) | inconclusive [inhibitor, partial curve, poor fit] | –
24 | CC(C)(c1ccccc1)c1ccc(OCCn2cnc3ccccc3c2=O)cc1 | inconclusive [inhibitor, partial curve, poor fit] | –
25 | S=c1[nH]nc(-c2cccs2)n1C1CCCCC1 | – | inactive: -23%
26 | C[C@@H]1CC2[C@@H]3CC[C@H]4CC(=O)CC[C@]4(C)C3=CC[C@]2(C)[C@@]1(O)C(=O)CO (stereo not given in full) | – | inconclusive: -33.5% [inhibitor]
27 | CC(C)N(C(=O)CSc1ccc(S(=O)(=O)N2CCCCC2)cn1)c1ccccc1 | inconclusive [inhibitor, partial curve, poor fit] | –
28 | COc1ccc(N=C2C(=S)N(c3ccc(OC)cc3)C(=NS(=O)(=O)c3ccccc3)N2c2ccccc2)cc1 | – | inactive: -23.3%
29 | Cn1nc(-c2ccccc2)cc1NC(=O)Nc1ccc(F)cc1 | inconclusive [inhibitor, single point] | –
30 | COc1ccc(-c2nc3ccc(NS(=O)(=O)c4ccc(C)cc4)cc3o2)cc1 | inconclusive [inhibitor, single point] | –
31 | CC1(C(=O)Nc2cccnc2)Cc2c(-c3cccc(C(F)(F)F)c3)ccnc2O1 (stereo not given) | inconclusive [inhibitor, single point] | –
32 | CN(Cc1ccc(C(F)(F)F)cc1)C(=O)[C@H]1O[C@@H](n2cnc3c(N)ncnc32)[C@H](O)[C@@H]1O | – | inactive: 28.2%
33 | Cc1occc1C(=O)NNC(=O)Nc1ccc(Cl)c(Cl)c1 | inconclusive [inhibitor, full curve, poor fit] | –
34 | O=C(/C=C/c1ccccc1[N+](=O)[O-])c1ccccc1Br | inconclusive [inhibitor, partial curve, poor fit] | –
35 | CC(=O)N(Cc1c(C)nn(-c2ccccc2)c1Cl)c1ccc(Cl)cc1 | inconclusive [inhibitor, partial curve, poor fit] | –
36 | CCOC(=O)C1CCCN(C2=C(NS(=O)(=O)c3ccc(Br)cc3)C(=O)c3ccccc3C2=O)C1 (stereo not given) | inconclusive [inhibitor, single point] | –
37 | CC(C)Cn1c(/C=N/Nc2nc3ccccc3[nH]2)nc2ccccc21 | inconclusive [inhibitor, full curve] | –
38 | CCCCCCc1ccc(N2C[C@H](Cc3ccccc3)[C@@H](CC(=O)Nc3ccccc3)C2=O)cc1 | inconclusive [inhibitor, partial curve, poor fit] | –
39 | O=C(Nc1ccccc1N1CCCC1)c1cccc(S(=O)(=O)N2CCOCC2)c1 | inconclusive [inhibitor, partial curve, poor fit] | –
40 | Cc1sc2ncn(CC(=O)Nc3cccc(S(N)(=O)=O)c3)c(=O)c2c1-c1ccccc1 | inconclusive [inhibitor, partial curve, poor fit] | –
